Laboratory results published in article PMC6919601, “Identification of Plasmodium dipeptidyl aminopeptidase allosteric inhibitors by high throughput screening” (PLoS ONE, 2019).
Screen size: about 110,000 compounds; about 230 (0.21%) showed an effect of 50% or more. The list shows a part of the results.

What follows are compounds tested against DPAP1 (Plasmodium falciparum, UniProt Q8IIJ9) (assay: primary screen, percent inhibition; read by cleavage of a fluorogenic dipeptide substrate; higher = more effect of the substance).
Design: species or system P. falciparum D10 trophozoite lysates; single well
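Also: 30 min substrate incubation versus DMSO and 10 µM JCP410 controls.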

DPAP1, sequence (Q8IIJ9 whole entry, looked up): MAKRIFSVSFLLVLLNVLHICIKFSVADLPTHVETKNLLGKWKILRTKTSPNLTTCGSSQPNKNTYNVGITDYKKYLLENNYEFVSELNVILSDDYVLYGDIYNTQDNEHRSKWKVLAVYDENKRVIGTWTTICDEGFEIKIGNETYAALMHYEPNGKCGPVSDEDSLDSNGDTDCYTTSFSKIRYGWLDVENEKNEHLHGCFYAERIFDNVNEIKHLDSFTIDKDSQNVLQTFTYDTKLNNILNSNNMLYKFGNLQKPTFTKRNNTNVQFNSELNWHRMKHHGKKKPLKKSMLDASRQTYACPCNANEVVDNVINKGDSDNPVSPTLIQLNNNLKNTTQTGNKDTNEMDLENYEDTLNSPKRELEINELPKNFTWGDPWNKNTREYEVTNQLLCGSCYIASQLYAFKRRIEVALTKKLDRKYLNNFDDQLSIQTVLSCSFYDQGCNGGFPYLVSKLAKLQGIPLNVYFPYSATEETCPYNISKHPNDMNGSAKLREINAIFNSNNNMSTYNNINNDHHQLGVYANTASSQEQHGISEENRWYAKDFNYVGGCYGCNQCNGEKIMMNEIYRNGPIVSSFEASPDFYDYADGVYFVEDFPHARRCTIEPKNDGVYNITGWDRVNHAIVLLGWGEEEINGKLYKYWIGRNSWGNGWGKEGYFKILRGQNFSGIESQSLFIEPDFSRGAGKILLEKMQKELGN

Structure (SMILES)	% Inhibition @ 10 uM [%]
Cc1ccccc1CSCc1ccc(C(=O)NC2CCCCC2)o1	4.81
CCCN1CN(Cc2ccco2)c2nc3ccccc3n2C1	-5.2
O=C(CCCOc1ccc(Cl)cc1Cl)Nc1cnc(O)nc1O	-3.64
CN(CC(=O)NCc1cccs1)S(=O)(=O)c1ccc2[nH]c(-c3ccccc3)nc2c1	3.88
Cc1ccc(NC(=O)C(C)N2C(=O)c3ccccc3C2=O)c(C)c1 (stereo not shown)	1.15
Cc1[nH]c2ccccc2c1C(Nc1ccccn1)c1ccccc1Cl (stereo not shown)	-5.15
COc1ccc(-c2noc(CNS(=O)(=O)c3ccc(F)cc3)n2)cc1	-1.22
CC(C)C1CC(c2ccccc2)(C(CN)CO)CCO1 (stereo not shown)	2.4
c1ccc(-c2nc3c4ccccc4nc(N4CCCCCC4)n3n2)cc1	0.981
CCOc1ccc(C2Nc3cccc4cccc(c34)N2)cc1OC	-5.06
N#C/C(=C\c1ccccc1Cl)C(=O)NCc1cccnc1	10.8
O=C(/C=C\Nc1ccc(S(=O)(=O)c2ccccc2)cc1)c1ccccc1	-1.91
CCOCN1C(=O)c2cccc3cccc1c23	2.22
Cc1cc(C)nc(SC(C(=O)O)c2ccccc2)n1 (stereo not shown)	6.29
COc1cccc(OCCCN2CCOCC2)c1	0.815
Cn1c(NCCCO)nc2c(c1=O)C1(CCCCC1)Cc1ccccc1-2	5.24
CCOC(=O)C1=C(CSc2nc3ccccc3s2)NC(=O)NC1c1ccc(OC)cc1 (stereo not shown)	-2.19
COc1ccc2cc3cc(C(=O)NCCN(C)C)oc3nc2c1	-1.54
COc1ccc(NC(=O)c2cccc(Cn3cc(Br)cn3)c2)cn1	3.94
C=CCSc1nc2c(c(=O)n1CC)C1(CCCC1)Cc1ccccc1-2	-1.6
COc1ccc(C)cc1NC(=O)C1CCN(C(=O)c2cccs2)CC1	-0.425
COc1ccc(Nc2cc(C)nc3ccc(OC)cc23)cc1	1.7
COc1cc2c(cc1OC)C1(CCCCC1)CN(CCCc1ccccc1)C2	5.48

Structure (SMILES)	% Inhibition @ 10 uM [%]
Cc1nn(C(C)C(=O)N2CCC(N3CCCCC3)CC2)c(=O)c2nn(-c3ccccc3)c(C)c12 (stereo not shown)	1.45
CC1=C(C(=O)OCc2ccccc2)C(c2ccc(C)cc2)NC(=O)N1 (stereo not shown)	-4.77
Cc1ccsc1C1C(C#N)=C(N)OC2=C1C(=O)CCC2 (stereo not shown)	-1.44
COc1ccccc1NC1CC2=C(CC1(C)C)C(C)(C)CCC2 (stereo not shown)	2.94
CC(NC(=O)c1cc(S(=O)(=O)N2CCOCC2)cn1C)c1ccccc1 (stereo not shown)	-6.65
Cc1ccc(OCC(=O)Nc2nc[nH]n2)c(Br)c1	-0.85
COc1ccc(-c2nc(CS(=O)CC(=O)NCCCOC(C)C)c(C)o2)cc1 (stereo not shown)	-1.05
CCc1ccc(-n2c(SCC(=O)Nc3cc(C)[nH]n3)nc3nncc-3c2O)cc1	-3.21
CCn1ncc(C2=NOC(C(=O)NCc3cccnc3)C2)c1C (stereo not shown)	1.7
O=C(CSc1nnc(CNC(=O)c2c(F)cccc2Cl)o1)NCc1ccco1	-3.39
COc1cc(Br)c(CCNC(=O)Cc2ccccc2)cc1OC	5.65
c1ccc(-c2nnc(-c3ccncc3)o2)cc1	-1.86
Cc1ccc2occ(CC(=O)N(Cc3ccccc3)C3CCS(=O)(=O)C3)c2c1 (stereo not shown)	1
CCN(Cc1nc(-c2ccc(C)cc2)no1)S(=O)(=O)c1ccc(C)cc1	-0.946
N#CC1=C(N)Oc2[nH]nc(-c3ccccn3)c2C1c1cccc(F)c1 (stereo not shown)	-0.759
CCC1(C)Cc2c(c(S)n(C)c(=N)c2C#N)CO1 (stereo not shown)	-1.1
COc1ccc(C2C(C#N)=C(N)OC3=C2C(=O)CC(c2ccccc2)C3)cc1 (stereo not shown)	3.54
COc1cc(NC(=O)COc2ccccc2C)c(OC)cc1Cl	1.39
Cc1cc2nc(SCCN3CCCCC3)[nH]c2cc1C	-1.99
CC(Nc1nc2nonc2nc1N1CCCC1)c1ccccc1 (stereo not shown)	-4.93
CCOC(=O)N1CCC2(CC1)OC(=O)C(C)=C2C(=O)NCCN(C)C	2.11
COc1ccc(C=C2C(=O)NC(=O)NC2=O)c(OC)c1	2.79
O=C(COCc1cc(-c2ccc(F)cc2)on1)NCCC1=CCCCC1	-4.96

Structure (SMILES)	% Inhibition @ 10 uM [%]
O=C(O)C1CC=CCC1C(=O)Nc1ccc(N2CCN(c3ccccc3)CC2)cc1 (stereo not shown)	1.84
CCC(C)c1ccccc1OCC(=O)Nc1ccc(S(=O)(=O)N2CCCC2)cc1 (stereo not shown)	3.57
Cc1ccc(Cl)cc1NC(=O)c1cccc(F)c1	3.74
COc1ccc(OC)c(C2=NOC(C(=O)N3C(C)CCCC3C)C2)c1 (stereo not shown)	-0.644
CC1(C)Cc2ccccc2-c2nc3n(c(=O)c21)CCS3	2.65
CC(=O)N1CCC(NCCc2ccccc2F)CC1	1.57
CC12CN3CC(C)(CN(C1)C3c1cccnc1)C2 (stereo not shown)	-2.05
COc1cc(/C=C2\SC(N)=NC2=O)ccc1OCc1ccc(Cl)cc1	2.87
O=C(O)c1c2c(nc3ccccc13)CCCCCC2	-2.22
Cc1nn(-c2ccccc2)c2c1C(c1cccs1)C1=C(O)CC(C)(C)CC1=N2 (stereo not shown)	2.46
CCOc1ccc(C(=O)N(Cc2ccc(N(C)C)cc2)C2CCS(=O)(=O)C2)cc1 (stereo not shown)	1.63
CCCC(=O)Nc1ccc(Cc2ccc(NC(=O)CCC)cc2)cc1	2.17
Cc1nccn1CCCNC(=O)c1nc(-c2ccc(C(F)(F)F)cc2)no1	3.68
CC(=O)N(c1ccc2oc3c(c2c1)CCCC3)S(=O)(=O)c1ccccc1	12.4
O=S(=O)(c1ccc2c3c(cccc13)CC2)N1CCSC1	-10.8
O=C(O)C(Cc1ccccc1)Nc1c2ccccc2nc2ccccc12 (stereo not shown)	-1.69
Cc1cc(NC(=O)CN2C(=O)CN(c3ccccc3)C2=O)no1	0.408
COc1cccc(-c2nc(SCc3ccccc3)n3[nH]c(=O)cc3n2)c1	-4.36
CC(C)CN1CC1C(=O)NCCCO (stereo not shown)	1.72
CCOC(=O)c1cc(-c2ccccc2)n(CC(=O)N(C)C2CCCCC2)c1C	-3.93
Sc1nc(-c2ccc3c(c2)OCO3)cn1-c1cccc(Cl)c1	19.5
